The campaign covered roughly 310,000 compounds. About 2,200 (0.71%) showed an effect of 50% or more. Effects have a minus sign here. The list shows a part of the results.
Target: human ether-à-go-go-related gene (hERG) potassium channel (human, UniProt Q12809)
Experiment: primary screen, population patch clamp on CHO cells stably expressing hERG

Chain of human ether-à-go-go-related gene (hERG) potassium channel (Q12809 whole entry, looked up): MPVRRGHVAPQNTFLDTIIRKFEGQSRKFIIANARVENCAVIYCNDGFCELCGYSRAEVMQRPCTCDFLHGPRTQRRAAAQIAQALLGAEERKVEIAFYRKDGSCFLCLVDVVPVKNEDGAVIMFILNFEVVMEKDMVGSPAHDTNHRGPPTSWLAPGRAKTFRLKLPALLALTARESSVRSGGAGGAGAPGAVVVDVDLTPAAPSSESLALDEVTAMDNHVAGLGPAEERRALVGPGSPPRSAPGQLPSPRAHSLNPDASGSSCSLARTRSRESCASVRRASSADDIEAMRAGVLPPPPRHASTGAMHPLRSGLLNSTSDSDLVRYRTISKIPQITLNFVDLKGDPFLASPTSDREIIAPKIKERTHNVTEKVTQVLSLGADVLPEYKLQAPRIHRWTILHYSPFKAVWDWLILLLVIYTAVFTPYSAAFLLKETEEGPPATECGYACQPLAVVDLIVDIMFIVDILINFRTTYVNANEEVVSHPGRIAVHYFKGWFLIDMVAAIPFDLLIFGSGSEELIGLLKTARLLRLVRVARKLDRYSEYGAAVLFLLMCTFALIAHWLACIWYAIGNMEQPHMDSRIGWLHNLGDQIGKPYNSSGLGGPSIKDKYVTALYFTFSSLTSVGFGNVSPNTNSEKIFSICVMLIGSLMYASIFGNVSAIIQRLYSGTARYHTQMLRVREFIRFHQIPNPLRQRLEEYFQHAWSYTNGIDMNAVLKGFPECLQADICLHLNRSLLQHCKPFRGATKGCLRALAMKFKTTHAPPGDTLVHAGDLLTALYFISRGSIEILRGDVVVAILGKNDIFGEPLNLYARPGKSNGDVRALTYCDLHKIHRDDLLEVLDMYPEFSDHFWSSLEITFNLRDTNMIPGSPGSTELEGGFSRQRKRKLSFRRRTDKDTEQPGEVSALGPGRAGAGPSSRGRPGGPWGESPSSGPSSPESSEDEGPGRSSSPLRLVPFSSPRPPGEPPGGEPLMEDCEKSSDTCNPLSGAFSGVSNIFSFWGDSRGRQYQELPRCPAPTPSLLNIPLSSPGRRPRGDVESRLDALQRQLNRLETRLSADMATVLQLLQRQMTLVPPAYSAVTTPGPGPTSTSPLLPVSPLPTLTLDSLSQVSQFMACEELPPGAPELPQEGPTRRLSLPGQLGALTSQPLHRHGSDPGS

| Structure (SMILES) | hERG current change (%, negative = inhibition) at 1uM [%] |
| --- | --- |
| CNC(=O)C1CCN(S(=O)(=O)c2c(C)noc2/C=C/c2ccc(OC)cc2)CC1 | 1.74 |
| CCOC(=O)C1CCN(C(=O)CN(c2ccc3c(c2)OCCO3)S(=O)(=O)c2ccccc2)CC1 | -7.68 |
| CCCCCCCCCCCCCCCC(=O)NCCO | 7.12 |
| Cc1ccc2cccc(Oc3ncnc4sc(C)c(C)c34)c2n1 | 9.58 |
| CN(c1ccc(OCC(=O)OCC(=O)Nc2ccccc2)cc1)S(=O)(=O)c1ccc(F)cc1 | 3.22 |
| NC(=O)CC(NC(=O)Cc1cccc2ccccc12)c1ccc(NCCc2cccc(F)c2)c([N+](=O)[O-])c1 (centres unmarked) | 5.18 |
| CCOC(=O)Nc1ccc2c(c1)N(C(=O)CN1CCN3CCCC3C1)c1ccccc1CC2.Cl (centres unmarked) | 5.09 |
| Nc1ccc(S(=O)(=O)N2CCCC2C(=O)O)cc1 (centres unmarked) | -0.507 |
| Cc1ccc(CNC(=O)[C@H]2C[C@@H]2[C@H](NP(=O)(c2ccccc2)c2ccccc2)c2ccccc2)o1 | 6.31 |
| Cc1c(NS(=O)(=O)c2ccc(Br)cc2)c(=O)n(-c2ccccc2)n1C | 7.34 |
| CCOc1ccc(N(CC(=O)Nc2ccccc2C(=O)N2CCOCC2)S(=O)(=O)c2ccc(F)cc2)cc1 | -1.78 |
| COc1ccc(S(=O)(=O)NNC(=O)c2ccc([N+](=O)[O-])cc2)cc1 | 10.8 |
| CC1=CCC2C(=O)N(c3ccc(S(N)(=O)=O)cc3)C(=O)C2C1 (centres unmarked) | 14 |
| COc1ccc(C(=O)C[n+]2cc(Br)cc3ccccc32)cc1[N+](=O)[O-].[Br-] | -36.1 |
| Cc1cc(C)nc(Nc2cc([N+](=O)[O-])ccc2C)n1.Cl | 11.9 |
| O=C(COc1ccccc1)N1CCN(C(=O)c2ccc([N+](=O)[O-])cc2)CC1 | -19 |
| CCOC(=O)Cc1nn(CCc2ccccn2)c(=O)c2ccccc12 | 0.196 |
| COc1ccc(CCNC(=O)C2CCCN2C(=O)Nc2ccc(F)cc2)cc1OC (centres unmarked) | 14.6 |
| CN1CCN(c2nc(N3CCN(CCO)CC3)nc3ccccc23)CC1.Cl | 14.6 |
| O=C1NC2(CCCCC2)C(=O)N1Cc1ccc([N+](=O)[O-])cc1 | 0.04 |
| O=C(NCCc1ccc(F)cc1)Nc1ccccc1Cl | 14.4 |
| COC(=O)CSC(=S)N1C(C)CCCC1C (centres unmarked) | 10.5 |
| O=C(/C=C/c1cccc(F)c1)N(c1ccccn1)C1CCCCC1 | 6.98 |
| CCCc1c(-c2ccc(O)cc2)nn(-c2ccc(O)cc2)c1-c1ccc(O)cc1 | 19 |
| CC(C)(C)c1ccc(C(=O)NNC(=S)NC(=O)c2cccnc2)cc1 | 16.8 |
| Cc1nn2c(=O)c(NC(=O)c3ccc(Cl)cc3)cnc2s1 | -0.746 |
| COc1cc(C(=S)N2CCOCC2)ccc1OC(=O)c1cc([N+](=O)[O-])c(C)c([N+](=O)[O-])c1 | 27.6 |

| Structure (SMILES) | hERG current change (%, negative = inhibition) at 1uM [%] |
| --- | --- |
| CC(C)N(Cc1ccccc1)C(=O)CN1C(=O)NC2(CCCC2)C1=O | 4.36 |
| COc1cccc(CNC(=O)CCCNC(=O)c2ccc(Cl)cc2)c1 | 11.1 |
| O=[N+]([O-])c1ccc(N2CCN(C(=S)NCc3ccc(Cl)cc3)CC2)cc1 | 12.9 |
| O=C(NCc1ccccc1)NC1CCS(=O)(=O)C1 (centres unmarked) | 16.7 |
| CCn1cc(CN2CCC(C(=O)Nc3ccc(Oc4ccccc4)nc3)CC2)cn1 | -6.94 |
| Cc1nc(C(=O)O)sc1C1(C)CC(c2cccc([N+](=O)[O-])c2)=NO1 (centres unmarked) | 5.65 |
| O=C(Nc1nncs1)c1cccc(S(=O)(=O)N2CCc3ccccc32)c1 | 1.35 |
| Cc1ccc(NC(=O)c2ccc3ncsc3c2)cc1S(=O)(=O)N(C)C | 3.88 |
| COc1cc(/C=N/OCC(=O)NC23CC4CC(CC(C4)C2)C3)ccc1OCc1ccccc1 | 8.1 |
| COc1ccc(CCNC(=O)C2CCN(Cc3nc(-c4cccc(Cl)c4)oc3C)CC2)cc1OC | -80.9 |
| CCCN1CCN(C(=O)Cn2nc(CC)n3c(cc4sccc43)c2=O)CC1 | -1.76 |
| CCn1cc(C(=O)NC2CC(C)(C)Cc3c2cnn3-c2cccc(F)c2)cn1 (centres unmarked) | 0.858 |
| CCSc1nnc(NC(=O)c2ccc(F)c(S(=O)(=O)N3CCOCC3)c2)s1 | 9.15 |
| CC(=O)Nc1ccc2c(c1)nc(CCN1CCN(C)CC1)n2C | -3.17 |
| O=C(Nc1ccc(NC(=O)c2ccccc2O)cc1)Nc1ccc(F)cc1F | 19.5 |
| COc1cc2c(c(OC)c1OC)-c1ccc(OC)c(=O)cc1[C@@H](NC(C)=O)CC2 | 11 |
| CCOC(=O)N1CCN(C(=O)CNC(=O)Cc2ccc(Cl)cc2)CC1 | -0.255 |
| CC(c1ccco1)N(C(=O)C12CC3(C)CC(C)(CC(C)(C3)C1)C2)c1ccccn1 (centres unmarked) | 19 |
| Cn1ncc(N=Cc2ccccc2[N+](=O)[O-])c1C(N)=O | 12.6 |
| COc1ccc(N(CC(=O)NCCc2ccccc2)C(=O)CCC(=O)Nc2nccs2)c(OC)c1 | 7.34 |
| CCCCOC(=O)CSc1nc2c(c(=O)[nH]c(=O)n2C)n1C/C=C(\C)Cl | -0.742 |
| CC(=O)c1cccc(NC(=O)CC2S/C(=N/N=C3CCCCCC3)NC2=O)c1 (centres unmarked) | 12.4 |
| CC(=O)c1ccc(NC(=O)CSc2n[nH]c(-c3cccnc3)n2)cc1 | 14.1 |
| CCN(c1cccc(C)c1)S(=O)(=O)c1csc(C(N)=O)c1 | 10.6 |
| O=C(O)CN1C(=O)c2ccc(Oc3cccc4c3C(=O)N(CC(=O)O)C4=O)cc2C1=O | 9.7 |
| Cc1nnc(SCc2cccc([N+](=O)[O-])c2)o1 | 16.3 |

Source: PMC4336329 (PLoS ONE, 2015)
